Test results reported in patent US20140044674A1 (Hoffmann-La Roche, published 2014).

T1: IL-10R on freshly isolated human blood monocytes (human, UniProt Q13651 22-578; Q08334 20-325)
T1 sequence (looked up) 1: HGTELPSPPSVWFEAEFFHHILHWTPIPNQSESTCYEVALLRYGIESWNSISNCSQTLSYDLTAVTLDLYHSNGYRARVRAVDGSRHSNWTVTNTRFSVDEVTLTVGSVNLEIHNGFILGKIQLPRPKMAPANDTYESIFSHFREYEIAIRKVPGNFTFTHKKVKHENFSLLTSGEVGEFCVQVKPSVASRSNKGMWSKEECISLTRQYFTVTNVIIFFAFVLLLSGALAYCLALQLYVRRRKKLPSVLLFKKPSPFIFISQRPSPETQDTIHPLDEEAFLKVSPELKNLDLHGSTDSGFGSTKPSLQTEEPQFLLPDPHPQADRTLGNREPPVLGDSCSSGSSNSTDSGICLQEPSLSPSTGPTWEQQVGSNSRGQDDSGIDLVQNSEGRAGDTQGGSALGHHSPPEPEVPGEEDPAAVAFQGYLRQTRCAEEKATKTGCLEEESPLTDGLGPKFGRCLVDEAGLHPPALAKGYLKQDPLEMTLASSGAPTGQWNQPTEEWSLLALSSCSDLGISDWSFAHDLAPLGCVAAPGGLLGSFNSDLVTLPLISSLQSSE
T1 sequence (looked up) 2: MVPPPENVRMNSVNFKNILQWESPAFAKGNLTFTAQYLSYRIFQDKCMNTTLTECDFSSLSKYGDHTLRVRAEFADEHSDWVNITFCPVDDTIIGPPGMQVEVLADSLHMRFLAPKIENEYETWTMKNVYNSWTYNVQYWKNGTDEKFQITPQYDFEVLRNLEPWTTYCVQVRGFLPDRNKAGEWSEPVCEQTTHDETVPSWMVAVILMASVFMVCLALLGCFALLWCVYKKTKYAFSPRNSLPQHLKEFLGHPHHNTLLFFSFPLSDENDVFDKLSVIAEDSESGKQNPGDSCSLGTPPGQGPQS


Assays:
[1] = molecular target: T1, IL-10R on freshly isolated human blood …; test: cell-based or functional assay
[2] = molecular target: T2, His-tagged mouse FAP ECD (mouse, UniProt P97321 27-761); test: SPR ProteOn XPR36, 25 C; His-tagged FAP captured by anti-penta-His IgG, construct as analyte
T2 construct: also called mu FAP; murine FAP
Procedure: (§1) To determine the affinities to FAP, the target protein was captured via its H6-tag by a covalently immobilized anti-H6 antibody (FIG. 9A). Briefly, anti-penta His IgG (Qiagen #34660, mouse monoclonal antibody) was immobilized at high levels (up to ˜5.000 RU) at 30 μ/min onto separate vertical channels of a GLM chip by simultaneously activating all channels for 5 min with a freshly prepared mixture of 1-ethyl-3-(3-dimethylaminopropyl)-carboiimide (EDC) and N-hydroxysuccinimide (sNHS), subsequently injecting 15 μg/ml anti-penta His IgG in 10 mM sodium acetate buffer pH 4.5 for 180 sec. Channels were blocked using a 5-min injection of ethanolamine. H6-tagged FAP from different species (see SEQ ID NOs 81, 83 and 85) was captured from a 5 μg/ml dilution in running buffer along the vertical channels for 60 s at 30 μl/min to achieve ligand densities between ˜250 and 600 RU. In a one-shot kinetic assay set-up (OSK), antibody-IL-10 fusion constructs were injected as analytes along the horizontal channels in a five-fold dilution series ranging from 50 to 0.08 nM at 100 μl/min. Association phase was recorded for 180 s, dissociation phase for 600 s. […] Running buffer (PBST) was injected along the sixth channel to provide an “in-line” blank for referencing. Association rates (kₒₙ) and dissociation rates (koff) were calculated using a simple 1:1 Langmuir binding model (ProteOn Manager software version 2.1) by simultaneously fitting the association and dissociation sensorgrams. The equilibrium dissociation constant (KD) was calculated as the ratio koff/kₒₙ.

[3] = molecular target: T3, His-tagged cynomolgus FAP ECD (cynomolgus, UniProt Q12884 27-760 (human entry)); test: as above
T3 construct: also called cyno FAP
Procedure: as §1

[4] = molecular target: T4, His-tagged human FAP ECD (human, UniProt Q12884 27-760); test: as above
T4 construct: also called hu FAP
Procedure: as §1

[5] = molecular target: T5, recombinant human FAP coated on cell culture plates (human, UniProt Q12884 26-760, limits assumed); test: cell-based or functional assay
[6] = molecular target: T5, recombinant human FAP coated on cell …; test: cell-based or functional assay; remark: listed apart in the source
[7] = molecular target: T2, His-tagged mouse FAP ECD; test: SPR ProteOn XPR36, 25 C; His-tagged FAP captured by anti-penta-His IgG, construct as analyte; off-rate could not be fitted, estimate used
Procedure: as §1

[8] = molecular target: T2, His-tagged mouse FAP ECD; test: SPR ProteOn XPR36, 25 C; His-tagged FAP captured by anti-penta-His IgG, construct as analyte; KD calculated with the estimated koff
Procedure: as §1

Row | EC50 [nM] pSTAT3 induction, primary monocytes, Donor 1 [1] [nM] | EC50 [nM] pSTAT3 induction, primary monocytes, Donor 2 [1] [nM] | EC50 [nM] pSTAT3 induction, primary monocytes, Donor 3 [1] [nM] | kon [2] [M⁻¹ s⁻¹] | Kd [3] [nM] | koff [3] [s⁻¹] | kon [3] [M⁻¹ s⁻¹] | Kd [4] [nM] | koff [4] [s⁻¹] | kon [4] [M⁻¹ s⁻¹] | EC50, suppression of hIL-1β production by monocytes, set-up (b) (immobilized), donor 2 [5] [nM] | EC50, suppression of hTNFα production by monocytes, set-up (b) (immobilized), donor 2 [5] [nM] | EC50, suppression of hIL-1β production by monocytes, set-up (b) (immobilized), donor 3 [6] [nM] | koff [7] [s⁻¹] | Kd [8] [nM] | EC50, suppression of hIL-6 production by monocytes, set-up (b) (immobilized), donor 2 [5] [nM] | EC50, suppression of hIL-6 production by monocytes, set-up (b) (immobilized), donor 3 [6] [nM] | EC50, suppression of hTNFα production by monocytes, set-up (b) (immobilized), donor 3 [6] [nM] | Binder
1 | 8.2 | 9.01 | 6.81 | 1.52e+06 | 0.0629 | 0.000242 | 3.84e+06 | 0.0557 | 0.000204 | 3.66e+06 | 3.34 | 2.85 | 4.71 | ~1e-05 | – | – | – | – | 4G8 Fab-IL-10M1-Fab (other, Tandem Fab fragments with an engineered monomeric IL-10 between them) heavy: [about 100 residues omitted here]GWLGNFDYWGQGTLVTVSSASTKGPSVFPLAPSSKSTSGGTAALGCLVKDYFPEPVTVSWNSGALTSGVHTFPAVLQSSGLYSLSSVVTVPSSSLGTQTYICNVNHKPSNTKVDKKVEPKSCDGGGGSGGGGSGGGGSSPGQGTQSENSCTHFPGNLPNMLRDLRDAFSRVKTFFQMKDQLDNLLLKESLLEDFKGYLGCQALSEMIQFYLEEVMPQAENQDPDIKAHVNSLGENLKTLRLRLRRCHRFLPCENGGGSGGKSKAVEQVKNAFNKLQEKGIYKAMSEFDIFINYIEAYMTMKIRNGGGGSGGGGSGGGGS[about 100 residues omitted here][about 120 residues omitted here] light: EIVLTQSPGTLSLSPGERATLSCRASQSVSRSYLAWYQQKPGQAPRLLIIGASTRATGIPDRFSGSGSGTDFTLTISRLEPEDFAVYYCQQGQVIPPTFGQGTKVEIKRTVAAPSVFIFPPSDEQLKSGTASVVCLLNNFYPREAKVQWKVDNALQSGNSQESVTEQDSKDSTYSLSSTLTLSKADYEKHKVYACEVTHQGLSSPVTKSFNRGEC
2 | – | – | – | 1.99e+06 | 0.0341 | 0.000128 | 3.75e+06 | 0.0352 | 7.93e-05 | 2.26e+06 | 0.14 | 0.059 | 0.117 | ~1e-05 | 0.00503 | 0.723 | 0.254 | 0.145 | 4G8 IgG-IL-10M1 (other, Knob-into-hole IgG1 (LALA P329G) with one engineered monomeric IL-10; the assignment is inferred) heavy 1: [about 100 residues omitted here]GWLGNFDYWGQGTLVTVSSASTKGPSVFPLAPSSKSTSGGTAALGCLVKDYFPEPVTVSWNSGALTSGVHTFPAVLQSSGLYSLSSVVTVPSSSLGTQTYICNVNHKPSNTKVDKKVEPKSCDKTHTCPPCPAPEAAGGPSVFLFPPKPKDTLMISRTPEVTCVVVDVSHEDPEVKFNWYVDGVEVHNAKTKPREEQYNSTYRVVSVLTVLHQDWLNGKEYKCKVSNKALGAPIEKTISKAKGQPREPQVCTLPPSRDELTKNQVSLSCAVKGFYPSDIAVEWESNGQPENNYKTTPPVLDSDGSFFLVSKLTVDKSRWQQGNVFSCSVMHEALHNHYTQKSLSLSPGGGGGSGGGGSGGGGSSPGQGTQSENSCTHFPGNLPNMLRDLRDAFSRVKTFFQMKDQLDNLLLKESLLEDFKGYLGCQALSEMIQFYLEEVMPQAENQDPDIKAHVNSLGENLKTLRLRLRRCHRFLPCENGGGSGGKSKAVEQVKNAFNKLQEKGIYKAMSEFDIFINYIEAYMTMKIRN heavy 2: [about 100 residues omitted here][about 120 residues omitted here][human IgG1 Fc with changes omitted here] light: EIVLTQSPGTLSLSPGERATLSCRASQSVSRSYLAWYQQKPGQAPRLLIIGASTRATGIPDRFSGSGSGTDFTLTISRLEPEDFAVYYCQQGQVIPPTFGQGTKVEIKRTVAAPSVFIFPPSDEQLKSGTASVVCLLNNFYPREAKVQWKVDNALQSGNSQESVTEQDSKDSTYSLSSTLTLSKADYEKHKVYACEVTHQGLSSPVTKSFNRGEC
